# Over roughly 81,000 sequences, “one-hybrid fitness for binding NBS DNA” has its median near -0.1; the highest 2% begin near 0.36. Some of the results follow.
# B1: Caulobacter ParB omega fusion; a variant is named by its letters at X, in order, B8GW30 (parent)
# chain: MESVVVGEPGMSEGRRGLGRGLSALLGEVDAAPAQAPGEQLGGSREAPIEILQRNPDQPRRTFREEDLEDLSNSIREKGVLQPILVRPSPDTAGEYQIVAGERAWRAAQRAGLKTVPIMVRELDDLAVLEIGIIENVQRADLNVLEEALSYKVLMEKFERTQENIAQTIGKSXSHVANXMRLLXLPDEVQSYLVSGELTAXHARAIAAAADPVALAKQIIEGGLSVRETEALARKAPNLSAGKSKGGRPPRVKDTDTQALESDLSSVLGLDVSIDHRGSTGTLTITYATLEQLDDLCNRLTRGI
# Variants of: B1
# Test: one-hybrid fitness for binding NBS DNA (the Noc-binding site; scaled: cognate 1, non-cognate 0); higher = stronger binding
# Details: with NBS DNA site
# Procedure, shortened: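 Fitness here means the log change in variant-to-wild-type read ratio between plasmids sequenced before and after selection. That scale was set so cognate equals 1 and non-cognate equals 0. The selection was a bacterial one-hybrid screen of Caulobacter ParB libraries, four specificity codons randomised, in E. coli USO carrying a HIS3 reporter with the site 19 bp from the promoter, grown 48 hours at 37°C on M9-minus-histidine with 0.1 mM IPTG and 5 mM 3-AT.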
row,Variant,one-hybrid fitness for binding NBS DNA
1,NPEE,≤ 0.2
2,CTFG,≤ 0.2
3,YHAC,≤ 0.2
4,SVPT,≤ 0.2
5,GRMT,≤ 0.2
6,NCAG,≤ 0.2
7,RVLE,≤ 0.2
8,TCIM,≤ 0.2
9,NMDS,≤ 0.2
10,DLTI,≤ 0.2
11,THYL,≤ 0.2
12,VTEG,≤ 0.2
13,EDQT,≤ 0.2
14,NPQC,≤ 0.2
15,QKRD,0.268
16,TIIK,≤ 0.2
17,VPPP,≤ 0.2
18,RIQN,≤ 0.2
19,PESN,≤ 0.2
20,AYLF,≤ 0.2
21,ICVR,≤ 0.2
22,PHSD,≤ 0.2
23,VYAG,≤ 0.2
24,VAGV,≤ 0.2

row,Variant,one-hybrid fitness for binding NBS DNA
1,NKNR,0.227
2,WRSQ,≤ 0.2
3,AIGC,≤ 0.2
4,FLDG,≤ 0.2
5,SPTG,≤ 0.2
6,AIPP,≤ 0.2
7,PIKC,≤ 0.2
8,DRRS,≤ 0.2
9,GYHC,≤ 0.2
10,KQPF,≤ 0.2
11,ELFS,≤ 0.2
12,NCIY,≤ 0.2
13,AGIY,≤ 0.2
14,HTWS,≤ 0.2
15,GMII,≤ 0.2
16,YSVD,≤ 0.2
17,NRNM,≤ 0.2
18,AIRK,≤ 0.2
19,TPPL,≤ 0.2
20,LYEY,≤ 0.2
21,IDHA,≤ 0.2
22,CATC,≤ 0.2
23,GKDV,≤ 0.2
24,TPRD,≤ 0.2

row,Variant,one-hybrid fitness for binding NBS DNA
1,TGLF,≤ 0.2
2,QPNV,≤ 0.2
3,RWNR,0.436
4,LIID,≤ 0.2
5,LLQK,≤ 0.2
6,FGES,≤ 0.2
7,DSMW,≤ 0.2
8,NHQV,≤ 0.2
9,FRDR,≤ 0.2
10,HCKS,≤ 0.2
11,YTTS,≤ 0.2
12,WSHI,≤ 0.2
13,ESGS,≤ 0.2
14,KWSG,≤ 0.2
15,FTDR,≤ 0.2
16,TPRC,≤ 0.2
17,RDRC,≤ 0.2
18,HKPK,≤ 0.2
19,CDHC,≤ 0.2
20,KLTG,≤ 0.2
21,AVPM,≤ 0.2
22,LAMV,≤ 0.2
23,SKTI,≤ 0.2
24,SNAA,≤ 0.2

row,Variant,one-hybrid fitness for binding NBS DNA
1,EQSV,≤ 0.2
2,NNWM,≤ 0.2
3,IQLG,≤ 0.2
4,QQEA,≤ 0.2
5,LLER,≤ 0.2
6,RALM,≤ 0.2
7,KAPI,≤ 0.2
8,NLST,≤ 0.2
9,GHLP,≤ 0.2
10,TVRT,≤ 0.2
11,AMTL,≤ 0.2
12,SFWT,≤ 0.2
13,STRW,≤ 0.2
14,PHMC,≤ 0.2
15,YYRQ,≤ 0.2
16,YTVL,≤ 0.2
17,CLAG,≤ 0.2
18,PGHV,≤ 0.2
19,PGTY,≤ 0.2
20,DQPC,≤ 0.2
21,CICC,≤ 0.2
22,PIPV,≤ 0.2
23,KPDT,≤ 0.2
24,THMG,≤ 0.2

row,Variant,one-hybrid fitness for binding NBS DNA
1,ERLV,≤ 0.2
2,EMYT,≤ 0.2
3,KRNH,0.265
4,LAHC,≤ 0.2
5,YMHS,≤ 0.2
6,HNSL,≤ 0.2
7,CRVH,≤ 0.2
8,PRRW,≤ 0.2
9,IKKG,≤ 0.2
10,GALR,≤ 0.2
11,DQTN,≤ 0.2
12,FMCG,≤ 0.2
13,DPPS,≤ 0.2
14,LQSL,≤ 0.2
15,TRKM,0.216
16,SGEC,≤ 0.2
17,EPQT,≤ 0.2
18,ECLK,≤ 0.2
19,QIYA,≤ 0.2
20,SEGT,≤ 0.2
21,DWTC,≤ 0.2
22,AMVS,≤ 0.2
23,LLTI,≤ 0.2
24,MDNY,≤ 0.2

row,Variant,one-hybrid fitness for binding NBS DNA
1,RGWS,≤ 0.2
2,KDNR,≤ 0.2
3,CNLP,≤ 0.2
4,LNTT,≤ 0.2
5,KASM,≤ 0.2
6,RSVM,≤ 0.2
7,HRGR,≤ 0.2
8,FTRR,0.238
9,PCCS,≤ 0.2
10,PNPY,≤ 0.2
11,DRWG,≤ 0.2
12,LNQG,≤ 0.2
13,CHPQ,≤ 0.2
14,ACGD,≤ 0.2
15,KSTI,≤ 0.2
16,KSVL,≤ 0.2
17,LRSF,≤ 0.2
18,HRGC,≤ 0.2
19,ITKL,≤ 0.2
20,RLQM,≤ 0.2
21,EPLD,≤ 0.2
22,VTGW,≤ 0.2
23,CHTT,≤ 0.2
24,TWCC,≤ 0.2

row,Variant,one-hybrid fitness for binding NBS DNA
1,NING,≤ 0.2
2,FWPN,≤ 0.2
3,AEVG,≤ 0.2
4,NDRV,≤ 0.2
5,EEYR,≤ 0.2
6,EWTK,≤ 0.2
7,NTYE,≤ 0.2
8,PGAN,≤ 0.2
9,VVTG,≤ 0.2
10,PRQP,≤ 0.2
11,WNWT,≤ 0.2
12,DYSL,≤ 0.2
13,TKHI,≤ 0.2
14,VTKE,≤ 0.2
15,CGAG,≤ 0.2
16,LYKY,≤ 0.2
17,LPRQ,≤ 0.2
18,ILRV,≤ 0.2
19,LGHM,≤ 0.2
20,KRQN,≤ 0.2
21,SWSD,≤ 0.2
22,VCKH,≤ 0.2
23,ELMS,≤ 0.2
24,ATPK,≤ 0.2

row,Variant,one-hybrid fitness for binding NBS DNA
1,GNKW,≤ 0.2
2,FYYI,≤ 0.2
3,VYQD,≤ 0.2
4,HFQG,≤ 0.2
5,TRRN,≤ 0.2
6,CARW,≤ 0.2
7,RVYT,0.357
8,GNQS,≤ 0.2
9,STKT,≤ 0.2
10,LLLV,≤ 0.2
11,PAEK,≤ 0.2
12,YKNV,≤ 0.2
13,CIAG,≤ 0.2
14,QSIP,≤ 0.2
15,DSPQ,≤ 0.2
16,TIAC,≤ 0.2
17,RIIH,≤ 0.2
18,THGK,≤ 0.2
19,RTSH,0.207
20,QMAL,≤ 0.2
21,ALND,≤ 0.2
22,VLKH,≤ 0.2
23,TLAT,≤ 0.2
24,QYPK,≤ 0.2

row,Variant,one-hybrid fitness for binding NBS DNA
1,VQSW,≤ 0.2
2,PLRI,≤ 0.2
3,MKRI,≤ 0.2
4,KPNV,≤ 0.2
5,AMLV,≤ 0.2
6,LARF,≤ 0.2
7,AKDL,≤ 0.2
8,HRLT,≤ 0.2
9,EGGC,≤ 0.2
10,VQSE,≤ 0.2
11,WELR,≤ 0.2
12,NGVC,≤ 0.2
13,PLLV,≤ 0.2
14,KSSE,≤ 0.2
15,CPTA,≤ 0.2
16,KHYG,≤ 0.2
17,ETAE,≤ 0.2
18,ACHE,≤ 0.2
19,GLIT,≤ 0.2
20,TILD,≤ 0.2
21,EVTV,≤ 0.2
22,RCIL,≤ 0.2
23,YIGT,≤ 0.2
24,CYLA,≤ 0.2

row,Variant,one-hybrid fitness for binding NBS DNA
1,PEDE,≤ 0.2
2,ANSW,≤ 0.2
3,AALN,≤ 0.2
4,QNWG,≤ 0.2
5,YLMV,≤ 0.2
6,EASY,≤ 0.2
7,TMFS,≤ 0.2
8,VPVF,≤ 0.2
9,TKPK,≤ 0.2
10,QLFF,≤ 0.2
11,TFPM,≤ 0.2
12,SIPV,≤ 0.2
13,HAMN,≤ 0.2
14,RCKR,0.76
15,PERD,≤ 0.2
16,GFLS,≤ 0.2
17,GASC,≤ 0.2
18,IMHG,≤ 0.2
19,PRHC,≤ 0.2
20,LVCR,≤ 0.2
21,TSSF,≤ 0.2
22,SSIL,≤ 0.2
23,SHIY,≤ 0.2
24,SVCA,≤ 0.2

row,Variant,one-hybrid fitness for binding NBS DNA
1,MTTT,≤ 0.2
2,CLWI,≤ 0.2
3,WLGG,≤ 0.2
4,HTPE,≤ 0.2
5,EMIK,≤ 0.2
6,LSGN,≤ 0.2
7,YVAG,≤ 0.2
8,TGSL,≤ 0.2
9,PGLG,≤ 0.2
10,KRIE,≤ 0.2
11,QWAT,≤ 0.2
12,DPLM,≤ 0.2
13,RPVR,0.204
14,TSLM,≤ 0.2
15,PRML,≤ 0.2
16,RWPR,≤ 0.2
17,RGSE,≤ 0.2
18,AMPT,≤ 0.2
19,WPQL,≤ 0.2
20,REYT,≤ 0.2
21,CLAR,≤ 0.2
22,PTCS,≤ 0.2
23,GPNP,≤ 0.2
24,VSWL,≤ 0.2

row,Variant,one-hybrid fitness for binding NBS DNA
1,YTKS,≤ 0.2
2,NPSW,≤ 0.2
3,FAKH,≤ 0.2
4,NLSR,≤ 0.2
5,RNRS,0.491
6,LISP,≤ 0.2
7,MMDS,≤ 0.2
8,GTVV,≤ 0.2
9,DESW,≤ 0.2
10,MPFY,≤ 0.2
11,PFFT,≤ 0.2
12,MDHR,≤ 0.2
13,RMED,≤ 0.2
14,RHLD,≤ 0.2
15,FNKT,≤ 0.2
16,NQAG,≤ 0.2
17,TAKA,≤ 0.2
18,YIKR,≤ 0.2
19,RWRA,≤ 0.2
20,GSAP,≤ 0.2
21,LNQL,≤ 0.2
22,QSRK,0.376
23,WAYT,≤ 0.2
24,GGPR,≤ 0.2

row,Variant,one-hybrid fitness for binding NBS DNA
1,TQIR,≤ 0.2
2,LPKV,≤ 0.2
3,GVSH,≤ 0.2
4,MVMR,≤ 0.2
5,QKAP,≤ 0.2
6,ALHA,≤ 0.2
7,GQHT,≤ 0.2
8,AMSV,≤ 0.2
9,ICRN,≤ 0.2
10,DVLR,≤ 0.2
11,RSNH,0.223
12,DITC,≤ 0.2
13,VWSV,≤ 0.2
14,NLNA,≤ 0.2
15,GQMS,≤ 0.2
16,PGLL,≤ 0.2
17,WEAR,≤ 0.2
18,NSIG,≤ 0.2

# Source: a collection of fitness landscapes (doi:10.1016/j.celrep.2020.107928)
